Source: PubChem BioAssay AID1745853 (National Center for Advancing Translational Sciences (NCATS), 2022)
This is one part of the list. The main result of the screen is listed elsewhere. These columns were measured beside it and carry no call. Peptide text beside a SMILES is read from it. * marks the point of attachment. Cbz = O=C(OCc1ccccc1)*

Legend:
Experiment in all cases: Primary Screen for Target Class Profiling of Small Molecule Inhibitors of Methyltransferases
[1] = target: Glycine N-methyltransferase (Homo sapiens) (UniProt Q14749); conditions: purified enzyme, MTase-Glo SAH luminescence; measured here: GNMT inhibition; at 40 µM; stronger effect = lower value
Outline: (§1)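 Each enzyme was reacted with SAM and its substrate, with compounds tested once at 40 uM; SAH formed was read by MTase-Glo luminescence.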

[2] = target: Guanidinoacetate N-methyltransferase (Homo sapiens) (UniProt Q14353); conditions: purified enzyme, MTase-Glo SAH luminescence; measured here: GAMT inhibition; at 40 µM; stronger effect = lower value
Outline: as §1

[3] = target: Histamine N-methyltransferase (Homo sapiens) (UniProt P50135); conditions: purified enzyme, MTase-Glo SAH luminescence; measured here: HNMT inhibition; at 40 µM; stronger effect = lower value
Outline: as §1

[4] = target: Nicotinamide N-methyltransferase (Homo sapiens) (UniProt P40261); conditions: purified enzyme, MTase-Glo SAH luminescence; measured here: NNMT inhibition; at 40 µM; stronger effect = lower value
Outline: as §1

[5] = target: Phenylethanolamine N-methyltransferase (Homo sapiens) (UniProt P11086); conditions: purified enzyme, MTase-Glo SAH luminescence; measured here: PNMT inhibition; at 40 µM; stronger effect = lower value
Outline: as §1
On the % scale 0 is the no-effect control and ±100 the full control effect.

SMILES | activity change, negative = inhibition [1] [%] | activity change, negative = inhibition [2] [%] | activity change, negative = inhibition [3] [%] | activity change, negative = inhibition [4] [%] | activity change, negative = inhibition [5] [%]
CC1CC(O)CC(C)(C)C1(O)CCO (stereo not given) | 0 | 2.07 | 1.24 | -8.24 | 4.51
O=C(c1ccc(-c2ccc(N3CCCCCC3)nc2)cc1)N1CCCC1 | -10.3 | -6.17 | -17.6 | -22 | -25.5
CNC(=O)[C@@H]1CN(C(=O)c2cccc(C)n2)C[C@H]1COC | -1.98 | -2.5 | -1.71 | -6.18 | -3.07
CC(C)OCCCn1c(=O)c2ccccc2n2c(CCC(=O)NCc3ccc4c(c3)OCO4)nnc12 | 2.76 | -6.17 | 9.89 | 4.42 | -4.31
CCCn1c(=O)c2ccc(C(=O)NC(C)C)cc2n2c(=O)n(CC(=O)N(C)c3ccccc3)nc12 | 1.87 | 0 | -0.67 | 0.7 | 1.79
Cc1ccc(C2(O)CCN(C(=O)CCC3NC(=O)NC3=O)CC2)nc1 (stereo not given) | -6.27 | -7.41 | -1.98 | -10.2 | -6.8
Cc1ccc(NC(=O)CSc2nnc3n(CC(C)C)c(=O)c4ccccc4n23)c(Cl)c1 | -5.67 | 0 | 9.64 | 0.845 | 3.82
O=C(c1ccncc1)N1CC(Oc2ccc(-c3noc(-c4ccccc4)n3)cc2)C1 | -1.28 | 1.68 | 2.04 | -0.137 | 2.67
CC(C)[C@H](NC(=O)OCc1ccccc1)C(=O)N[C@H](C=O)Cc1ccccc1 (Cbz-Val-Phe-aldehyde) | 3.7 | 12.1 | 6.27 | -4.25 | 1.08
Cc1cc2occ(CC(=O)N3CC[C@](C)(O)[C@@H](O)C3)c2cc1Cl | -2.18 | -1.45 | -0.461 | -3.09 | -3.61
CC(=O)Nc1c2n(c3ccc(F)cc13)CC(C)(C(=O)NC1CCCC1)N(C1CCCC1)C2=O (stereo not given) | -4.91 | 2.48 | -6.72 | -9.82 | -6.14
COc1cc(C(C)C)c(Oc2cnc(N)nc2N)cc1I | -3.72 | -4.36 | 2.77 | -28.8 | -1.37
O=C(CCCCCN1CCN(c2ccccc2-c2ccccc2)CC1)NC1CCCc2ccccc21 (stereo not given) | -3.81 | 10.9 | -2.57 | -6.72 | 5.87
Cc1cccc(C(C)(C)C)c1NC(=O)N1CCN2C(=O)CNC(=O)C2C1 (stereo not given) | -2.81 | -3.33 | -2.26 | -8.24 | 9.98
C=C1CCC(OC(C)=O)C2(C)CC3(O)OC(=O)C(C)=C3CC12 (stereo not given) | -0.454 | 1.59 | 5.3 | -10.2 | 4.07
CN1CCN(c2ccc(-c3cc4c(ccn4C)c(C(=O)NCCC(N)=O)n3)cc2)CC1 | -8.16 | -7.4 | -5.08 | -17 | -14.7
O=c1[nH]c(C2CCCN([S+](=O)([O-])c3cccc(C(F)(F)F)c3)C2)nn1-c1ccccn1 (stereo not given) | -8.26 | -4.1 | -3.46 | -7.27 | 11.5
CCC(C)NC(=O)C1COC2(CCC(C)CC2)N1C(=O)c1cccc(C)c1 (stereo not given) | -0.31 | -0.403 | -0.499 | -0.494 | 2.19
CCOC(=O)c1cc2n(n1)CC(C)(C(=O)NCCCOC)N(c1ccc3c(c1)OCO3)C2=O (stereo not given) | 6.27 | 0.719 | 8.44 | 7.24 | 5.06
Cc1ccc(C)c(N2C(=O)c3cc(C(C)(C)C)nn3CC2(C)C(=O)NCc2ccccc2)c1 (stereo not given) | 9.58 | 1.7 | 6.05 | 11.2 | 3.65
O=C(Cn1nc2n(Cc3ccccc3)c(=O)c3ccccc3n2c1=O)Nc1ccc2c(c1)OCO2 | -2.31 | 2.48 | 0.973 | -4.87 | -0.115
COc1ccccc1NC(=O)Cn1nc2n(CCCOC(C)C)c(=O)c3ccccc3n2c1=O | 5.02 | 0 | 6.9 | 6.33 | 5.48
CCOC(=O)C1CCCN(c2nc3c(S(=O)(=O)c4ccc(C)c(C)c4)nnn3c3ccccc23)C1 (stereo not given) | -11.1 | 1.05 | 1.81 | -1.74 | -1.28
CC1CCC2C(C)(C)C(O)CCC2(C)C12Cc1c(O)cc3c(c1O2)C(N)=NC3 (stereo not given) | 4.45 | 9.77 | 10.1 | -19.8 | 0.493
Cc1ccc(CNC(=O)CCc2nnc3n(CCC(C)C)c(=O)c4ccccc4n23)cc1 | -6.25 | 4.13 | 1.18 | -2.55 | -5.09
Cc1ccc(S(=O)(=O)c2nnn3c2nc(N2CCC(N4CCCCC4)CC2)c2ccccc23)cc1C | -2.43 | -0.663 | -87 | -5.61 | -6.4
COc1ccccc1CN1C(=O)c2cc3sccc3n2CC1(C)C(=O)NC1CCCCCC1 (stereo not given) | -1.6 | 3.56 | -2.3 | -1.22 | -6.13
O=S(=O)(NCCN1CCOCC1)c1ccc(Cc2ccc(S(=O)(=O)NCCN3CCOCC3)cc2)cc1 | -0.102 | 0 | 10.2 | 2 | 3.53
O=C1NC(=O)c2cc(Nc3ccccc3)c(Nc3ccccc3)cc21 | -23 | -6.34 | -13.8 | -20.7 | -12.6
